# Data from the supplement of paper PMC8728848.
# This is one part of the list.
# B1: FBG4 (Homo sapiens), Q96EF6 (protein)
# chain: MGARLSRRRLPADPSLALDALPPELLVQVLSHVPPRSLVTRCRPVCRAWRDIVDGPTVWLLQLARDRSAEGRALYAVAQRCLPSNEDKEEFPLCALARYCLRAPFGRNLIFNSCGEQGFRGWEVEHGGNGWAIEKNLTPVPGAPSQTCFVTSFEWCSKRQLVDLVMEGVWQELLDSAQIEICVADWWGARENCGCVYQLRVRLLDVYEKEVVKFSASPDPVLQWTERGCRQVSHVFTNFGKGIRYVSFEQYGRDVSSWVGHYGALVTHSSVRVRIRLS
# What was measured:
# Experiment in all cases: glycan array binding signal (z-score within array); higher = stronger binding
# Conditions in all cases: glycan notation: IUPAC condensed, linker removed
# [1] = biological target: Fuc(a1-3)[Gal(b1-4)]GlcNAc(b1-4)Gal(b1-4)[Fuc(a1-3)]GlcNAc(b1-4)Gal(b1-4)[Fuc(a1-3)]GlcNAc
# Procedure, shortened: (§1)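 Glycan array binding is given as a within-array Z-score, which can be read as non-binding when negative. The arrays, 3228 of them, came from the Consortium for Functional Glycomics database and were retained only where the protein sequence was available. Z-scores were averaged across arrays of the same protein sequence at different concentrations or buffers and across linkers.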
# [2] = biological target: Fuc(a1-3)[Gal(b1-4)]GlcNAc6S
# Procedure, shortened: as §1
# [3] = biological target: Fuc(a1-3)[Gal3S(b1-4)]Glc
# Procedure, shortened: as §1
# [4] = biological target: Fuc(a1-3)[Gal3S(b1-4)]Glc6S
# Procedure, shortened: as §1
# [5] = biological target: Fuc(a1-3)[Gal3S(b1-4)]GlcNAc
# Procedure, shortened: as §1
# [6] = biological target: Fuc(a1-3)[Gal3S(b1-4)]GlcNAc6S
# Procedure, shortened: as §1
# [7] = biological target: Fuc(a1-3)[GalNAc(b1-4)]Gal(b1-4)GlcNAc
# Procedure, shortened: as §1
# Fuc(a1-4)GlcNAc = biological target: Fuc(a1-4)GlcNAc
# Procedure, shortened: as §1
# Fuc(b1-3)GlcNAc = biological target: Fuc(b1-3)GlcNAc
# Procedure, shortened: as §1
# Gal(a1-2)Gal = biological target: Gal(a1-2)Gal
# Procedure, shortened: as §1
# Gal(a1-3)Gal = biological target: Gal(a1-3)Gal
# Procedure, shortened: as §1
# Gal(a1-3)Gal(b1-3)Glc = biological target: Gal(a1-3)Gal(b1-3)Glc
# Procedure, shortened: as §1
# Gal(a1-3)Gal(b1-3)GlcNAc = biological target: Gal(a1-3)Gal(b1-3)GlcNAc
# Procedure, shortened: as §1
# Gal(a1-3)Gal(b1-4)GlcNAc = biological target: Gal(a1-3)Gal(b1-4)GlcNAc
# Procedure, shortened: as §1
# [8] = biological target: Gal(a1-3)Gal(b1-4)[Fuc(a1-3)]GalNAc
# Procedure, shortened: as §1
# Gal(a1-3)GlcNAc = biological target: Gal(a1-3)GlcNAc
# Procedure, shortened: as §1
# [9] = biological target: Gal(a1-3)[Gal(a1-4)]Gal(b1-4)GlcNAc
# Procedure, shortened: as §1
# Gal(a1-4)Gal(b1-4)Gal = biological target: Gal(a1-4)Gal(b1-4)Gal
# Procedure, shortened: as §1
# Gal(a1-4)Gal(b1-4)GalNAc = biological target: Gal(a1-4)Gal(b1-4)GalNAc
# Procedure, shortened: as §1
# Gal(a1-4)GlcNAc = biological target: Gal(a1-4)GlcNAc
# Procedure, shortened: as §1
# Gal(a1-6)Glc = biological target: Gal(a1-6)Glc
# Procedure, shortened: as §1
# Gal(b1-2)Gal = biological target: Gal(b1-2)Gal
# Procedure, shortened: as §1
# Gal(b1-3)Gal = biological target: Gal(b1-3)Gal
# Procedure, shortened: as §1
# Gal(b1-3)GalNAc = biological target: Gal(b1-3)GalNAc
# Procedure, shortened: as §1
# [10] = biological target: Gal(b1-3)GalNAc(b1-3)Gal(a1-4)Gal(b1-4)Glc
# Procedure, shortened: as §1
# [11] = biological target: Gal(b1-3)GalNAc(b1-3)Gal(b1-4)Glc
# Procedure, shortened: as §1
# [12] = biological target: Gal(b1-3)GalNAc(b1-3)Gal(b1-4)GlcNAc
# Procedure, shortened: as §1
# [13] = biological target: Gal(b1-3)GalNAc(b1-4)Gal(b1-4)Glc
# Procedure, shortened: as §1
# [14] = biological target: Gal(b1-3)GalNAc(b1-4)[Neu5Ac(a2-3)]Gal(b1-4)Glc
# Procedure, shortened: as §1
# [15] = biological target: Gal(b1-3)GlcNAc(b1-3)Gal(b1-3)GlcNAc
# Procedure, shortened: as §1
# [16] = biological target: Gal(b1-3)[Fuc(a1-4)]GlcNAc
# Procedure, shortened: as §1
# [17] = biological target: Gal(b1-3)[Fuc(a1-4)]GlcNAc(b1-3)Gal(b1-3)[Fuc(a1-4)]GlcNAc
# Procedure, shortened: as §1
# [18] = biological target: Gal(b1-3)[Fuc(a1-4)]GlcNAc(b1-3)Gal(b1-4)GlcNAc
# Procedure, shortened: as §1
# [19] = biological target: Gal(b1-3)[Fuc(a1-4)]GlcNAc(b1-3)Gal(b1-4)[Fuc(a1-3)]GlcNAc
# Procedure, shortened: as §1
# [20] = biological target: Gal(b1-3)[GlcNAc(b1-6)]GalNAc
# Procedure, shortened: as §1
# [21] = biological target: Gal(b1-3)[GlcNAc(b1-6)]GlcNAc
# Procedure, shortened: as §1
# [22] = biological target: Gal(b1-3)[Neu5Ac(a2-6)]GalNAc
# Procedure, shortened: as §1
# [23] = biological target: Gal(b1-3)[Neu5Ac(a2-6)]GlcNAc
# Procedure, shortened: as §1
binder,measurement,setting,value
B1,glycan array binding signal (z-score),[1],-0.332
same,glycan array binding signal (z-score),[2],-0.271
same,glycan array binding signal (z-score),[3],-0.408
same,glycan array binding signal (z-score),[4],0.064
same,glycan array binding signal (z-score),[5],-0.301
same,glycan array binding signal (z-score),[6],0.459
same,glycan array binding signal (z-score),[7],-0.158
same,glycan array binding signal (z-score),Fuc(a1-4)GlcNAc,-0.394
same,glycan array binding signal (z-score),Fuc(b1-3)GlcNAc,-0.395
same,glycan array binding signal (z-score),Gal(a1-2)Gal,-0.37
same,glycan array binding signal (z-score),Gal(a1-3)Gal,-0.408
same,glycan array binding signal (z-score),Gal(a1-3)Gal(b1-3)Glc,-0.259
same,glycan array binding signal (z-score),Gal(a1-3)Gal(b1-3)GlcNAc,-0.25
same,glycan array binding signal (z-score),Gal(a1-3)Gal(b1-4)GlcNAc,-0.221
same,glycan array binding signal (z-score),[8],-0.256
same,glycan array binding signal (z-score),Gal(a1-3)GlcNAc,-0.551
same,glycan array binding signal (z-score),[9],-0.397
same,glycan array binding signal (z-score),Gal(a1-4)Gal(b1-4)Gal,-0.039
same,glycan array binding signal (z-score),Gal(a1-4)Gal(b1-4)GalNAc,-0.389
same,glycan array binding signal (z-score),Gal(a1-4)GlcNAc,-0.495
same,glycan array binding signal (z-score),Gal(a1-6)Glc,1.59
same,glycan array binding signal (z-score),Gal(b1-2)Gal,-0.007
same,glycan array binding signal (z-score),Gal(b1-3)Gal,-0.536
same,glycan array binding signal (z-score),Gal(b1-3)GalNAc,-0.478
same,glycan array binding signal (z-score),[10],-0.289
same,glycan array binding signal (z-score),[11],-0.097
same,glycan array binding signal (z-score),[12],-0.307
same,glycan array binding signal (z-score),[13],-0.488
same,glycan array binding signal (z-score),[14],-0.335
same,glycan array binding signal (z-score),[15],-0.016
same,glycan array binding signal (z-score),[16],-0.571
same,glycan array binding signal (z-score),[17],-0.379
same,glycan array binding signal (z-score),[18],-0.167
same,glycan array binding signal (z-score),[19],-0.388
same,glycan array binding signal (z-score),[20],-0.487
same,glycan array binding signal (z-score),[21],-0.388
same,glycan array binding signal (z-score),[22],-0.433
same,glycan array binding signal (z-score),[23],-0.329
